{
  "source": "PubChem BioAssay AID624296",
  "about": "(National Center for Advancing Translational Sciences (NCATS), 2012)",
  "note": "Hit rate of the full screen: of about 350,000 compounds, about 9,900 (2.8%) were called active. This list was built around the results that the source calls inconclusive (neither active nor inactive); the mix of calls is not that of the screen. Calls come from the whole dose curve; as a rule, active = well fitted activation curve with a large enough effect; inconclusive = small, poorly fitted or top-dose-only effect; inactive = no such curve, though single readings can be large or run the other way. No potency is given beside an inconclusive call; the fits are too rough. Potency is the fitted concentration of half-maximal effect; tags give direction and shape of the fitted curve.",
  "data": [
    {"assay": "A quantitative high throughput screen for small molecules that induce DNA re-replication in MCF 10a normal breast cells; note: nearly all actives have a fitted effect of over 50% in size; for activity, positive = re-replication: % of control where 0% means no effect.", "conditions": "MCF 10A DNA re-replication, Hoechst nuclear intensity, 48 h; activity, positive = re-replication: at 46.1 µM (top of the series)", "values": [
      {"smiles": "O=C(NNS(=O)(=O)c1ccccc1)c1cccc([N+](=O)[O-])c1", "Potency": "inconclusive [activator, single point]"},
      {"smiles": "Cc1cc2nc3c(=O)n(CCc4ccccc4)c(=O)[nH]c3nc2cc1N", "Potency": "inconclusive [activator, single point]"},
      {"smiles": "COc1ccc(/C=N/NC(N)=S)cc1OC(=O)c1cccc2ccccc12", "Potency": "inconclusive [activator, single point]"},
      {"smiles": "COc1ccc(NC(=O)CS(=O)CC(=O)Nc2ccc(-n3cnnn3)c(C)c2)cc1", "note": "(stereo not given)", "activity, positive = re-replication": "inactive: -3.22%"},
      {"smiles": "CC1(C)CC(=O)C=C(NCc2ccc(Cl)c(Cl)c2)C1", "activity, positive = re-replication": "inactive: 0.775%"},
      {"smiles": "Cc1c(C(=O)OCC(=O)N2CCCC(C)C2)oc2ccccc12", "note": "(stereo not given)", "Potency": "inconclusive [activator, partial curve, poor fit]"},
      {"smiles": "Cc1sc2nc(CN3CCCC3)nc(N3CCN(S(=O)(=O)c4cccc(F)c4)CC3)c2c1C", "Potency": "inconclusive [activator, partial curve, poor fit]"},
      {"smiles": "O=C(NNC1=C(C(=O)C(F)(F)F)CCC1)c1cccc(Cl)c1", "Potency": "inconclusive [activator, full curve]"},
      {"smiles": "Cc1ccc(C(=O)CN2C(=O)C(C)Oc3ccccc32)cc1", "note": "(stereo not given)", "Potency": "inconclusive [activator, partial curve, poor fit]"},
      {"smiles": "Cn1nc(-c2ccc(OCC(=O)Nc3ccccc3)cc2)c2ccccc2c1=O", "activity, positive = re-replication": "inactive: 0.564%"},
      {"smiles": "COc1cccc(CCC(=O)Nc2cc3c(cc2C(=O)O)OCCCO3)c1OC", "activity, positive = re-replication": "inactive: 0.267%"},
      {"smiles": "CC(=O)Cn1nnc2sc(-c3ccccc3)cc2c1=O", "Potency": "inconclusive [activator, single point]"},
      {"smiles": "O=C(O)c1ccc(N=NN2CCCCCC2)cc1", "Potency": "inconclusive [activator, partial curve, poor fit]"},
      {"smiles": "COC(=O)c1ccc(-n2nc(C(F)(F)F)c3c2-c2ccoc2CC3)cc1", "Potency": "inconclusive [activator, full curve]"},
      {"smiles": "c1ccc(-c2nc(-c3nccc4ccccc34)oc2-c2ccccc2)cc1", "Potency": "inconclusive [activator, full curve, poor fit]"},
      {"smiles": "N#Cc1nc(COc2ccccc2)oc1N1CCCCCC1", "Potency": "inconclusive [activator, full curve, poor fit]"},
      {"smiles": "Cc1ccc2nc(/C(C#N)=C/c3cn[nH]c3-c3ccc(F)cc3)[nH]c2c1", "Potency": "active: 13 µM"},
      {"smiles": "Cc1cc(C(=O)N/N=C/c2c(C)[nH]n(-c3ccccc3)c2=O)n[nH]1", "activity, positive = re-replication": "inactive: -0.748%"},
      {"smiles": "O=C(CSC1=Nc2ccccc2C2CC=NN12)NCc1ccco1", "note": "(stereo not given)", "Potency": "active: 20.6 µM"},
      {"smiles": "COc1cc(SC)ccc1C(=O)Nc1ccc(Br)cn1", "Potency": "inconclusive [activator, partial curve, poor fit]"},
      {"smiles": "O=[N+]([O-])c1ccc(S(=O)(=O)N/N=C/c2ccsc2)cc1", "Potency": "inconclusive [activator, full curve, poor fit]"},
      {"smiles": "NC(=S)NN=C1Cc2cccc3cccc1c23", "activity, positive = re-replication": "inactive: -2.86%"},
      {"smiles": "COc1ccc(CC2(c3ccccc3)NC(=O)NC2=O)cc1", "note": "(stereo not given)", "Potency": "inconclusive [activator, single point]"},
      {"smiles": "CCOc1cccc(CN2CCCC(CNC(=O)c3cccc(OC)c3OC)C2)c1", "note": "(stereo not given)", "activity, positive = re-replication": "inactive: -2.82%"},
      {"smiles": "CCc1ccc(CN2CCN(C(=O)c3cccc(OC)c3OC)CC2)cc1", "activity, positive = re-replication": "inactive: -7.42%"},
      {"smiles": "CC(C)c1cc(C(=O)N/N=C/C(Br)=C/c2ccccc2)n[nH]1", "Potency": "inconclusive [activator, full curve, poor fit]"},
      {"smiles": "O=c1oc2c(CN3CCCCC3)c(O)ccc2c2c1CCCC2", "Potency": "inconclusive [activator, single point]"},
      {"smiles": "CCOC(=O)c1ccccc1NC(=O)c1cn(-c2ccc(C)c(C)c2)c(=O)c2ccccc12", "Potency": "inconclusive [activator, full curve, poor fit]"},
      {"smiles": "Cn1c(SCc2ccccc2Cl)nc(C(F)(F)F)cc1=O", "Potency": "inconclusive [activator, partial curve, poor fit]"},
      {"smiles": "Cc1ccc(NC(=S)Nc2ccc3[nH]c(=O)[nH]c3c2)cc1C", "Potency": "inconclusive [activator, single point]"},
      {"smiles": "CC1=C(C(=O)OCc2ccccc2)C(c2cccc([N+](=O)[O-])c2)NC(=O)N1C", "note": "(stereo not given)", "Potency": "active: 0.82 µM"},
      {"smiles": "CC1(C)CC(=O)c2sc(NS(=O)(=O)c3ccc(Br)cc3)nc2C1", "Potency": "active: 0.58 µM"},
      {"smiles": "COc1ccccc1C1CN(c2ccc(F)cc2F)N=C1c1cccs1", "note": "(stereo not given)", "Potency": "inconclusive [activator, single point]"},
      {"smiles": "Cc1nc(SCC(=O)NCc2ccco2)c2c3c(sc2n1)CCCC3", "Potency": "inconclusive [activator, single point]"},
      {"smiles": "CC(=O)C[C@@H](O)CC(=O)[C@@H]1OC(=O)[C@H](C)C/C=C\\Cc2ccccc21", "activity, positive = re-replication": "inactive: 8.11%"},
      {"smiles": "NS(=O)(=O)c1ccc(Nc2nc(-c3cccnc3)cs2)cc1", "Potency": "inconclusive [activator, single point]"},
      {"smiles": "Cc1ccc(S(=O)(=O)N(C)C)cc1NC(=O)CN1C(=O)NC2(CCCc3ccccc32)C1=O", "note": "(stereo not given)", "Potency": "inconclusive [activator, single point]"},
      {"smiles": "CCN(C(=O)c1cn(C)c(=O)c2ccccc12)c1ccccc1F", "Potency": "inconclusive [activator, single point]"},
      {"smiles": "O=C(O)c1ccc(NC(=O)C2(c3ccccc3)CCOCC2)cc1", "activity, positive = re-replication": "inactive: -2.78%"},
      {"smiles": "COc1ccc(C(c2nnnn2C(C)(C)C)N2CCN(c3nc4ccccc4s3)CC2)cc1", "note": "(stereo not given)", "activity, positive = re-replication": "inactive: 0.56%"},
      {"smiles": "Cc1cccc(CNc2ccc(S(=O)(=O)N3CCCCC3)cc2)c1", "Potency": "inconclusive [activator, single point]"},
      {"smiles": "CCc1ccc(/C=C/C(=O)c2cc(Br)ccc(=O)c2O)cc1", "Potency": "inconclusive [activator, full curve]"},
      {"smiles": "COc1cc(SC)ccc1C(=O)Nc1nccs1", "Potency": "inconclusive [activator, single point]"},
      {"smiles": "O=C(NCCC1=CCCCC1)c1cc(COc2c(F)cccc2F)on1", "activity, positive = re-replication": "inactive: -1.05%"},
      {"smiles": "O=C(CCc1ccccc1)Nc1ccc2c(c1)C(=O)OC2", "activity, positive = re-replication": "inactive: -5.08%"}
    ]}
  ]
}
